Assay results from patent publication US20240409647A1, “BISPECIFIC BINDING PROTEINS AGAINST ALARMINS AND USES THEREOF” (SINOMAB BIOSCIENCE LIMITED, priority 2022, published 2024).

T1: IL-17RB (Homo sapiens, UniProt Q9NRM6)
T1 construct: purchased R&D systems
T1 sequence (Q9NRM6 18-502): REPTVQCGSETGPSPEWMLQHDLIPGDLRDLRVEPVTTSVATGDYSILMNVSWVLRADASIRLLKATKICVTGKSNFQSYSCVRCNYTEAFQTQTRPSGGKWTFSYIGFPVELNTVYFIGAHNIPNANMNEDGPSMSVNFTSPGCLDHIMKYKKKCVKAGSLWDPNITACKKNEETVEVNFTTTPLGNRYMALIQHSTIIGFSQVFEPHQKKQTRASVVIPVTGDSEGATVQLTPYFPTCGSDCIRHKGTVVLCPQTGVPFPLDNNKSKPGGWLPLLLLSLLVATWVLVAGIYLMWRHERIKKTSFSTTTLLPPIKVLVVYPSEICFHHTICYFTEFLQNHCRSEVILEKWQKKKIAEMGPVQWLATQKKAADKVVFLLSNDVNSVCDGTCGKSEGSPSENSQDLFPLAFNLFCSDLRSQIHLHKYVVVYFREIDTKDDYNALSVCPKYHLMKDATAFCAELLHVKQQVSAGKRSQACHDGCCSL

T2: IL-33 (Homo sapiens, UniProt O95760)
T2 construct: purchased R&D systems
T2 sequence (O95760 95-270): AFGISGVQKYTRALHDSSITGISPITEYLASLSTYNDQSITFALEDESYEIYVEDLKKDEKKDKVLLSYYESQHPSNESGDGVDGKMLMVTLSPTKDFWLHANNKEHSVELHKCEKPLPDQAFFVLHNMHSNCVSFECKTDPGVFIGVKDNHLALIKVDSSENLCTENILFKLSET


Legend:
IL-17RB = biological target: T1, IL-17RB; experiment: ELISA, antigen binding specificity of bsBp (IL-17RB); parameters: key: −: no binding; +: weak; ++: moderate; +++: strong binding; N/A refers to no binding affinity; conditions: 33.5 nM; antigen coated at 2 μg/mL
Experimental: (§1) Binding specificities of bsBp were evaluated by standard ELISA assays. Briefly, ELISA strips were coated with the respective target antigens, including IL17RB, IL-33, or TSLP (R&D systems) at a final concentration of 2 μg/mL. Bispecific antibodies were added at 33.5 nM to ELISA strips coated with the desired antigen. After incubation under room temperature for 2 hours, ELISA strips were washed five times with PBS. […] No result is provided for SM17-human TSLPR as the yield was too low to be detected.

IL-33 [1] = biological target: T2, IL-33; experiment: ELISA, antigen binding specificity of bsBp (IL-33); parameters: key: −: no binding; +: weak; ++: moderate; +++: strong binding; N/A refers to no binding affinity; conditions: 33.5 nM; antigen coated at 2 μg/mL
Experimental: as §1

IL-33 [2] = biological target: T2, IL-33; experiment: Bio-Layer Interferometry (Octet), binding kinetics of bsBp to human IL-33
Experimental: (§2) The binding affinity of bsBp to the targeted alarmins was determined using a bio-Layer Interferometry analysis (Octet ReD96 system, Sartorius). bsBp or SM17 (20 μg/mL) was immobilized on biosensors via binding to anti-human Fab CH1 region; serially diluted human IL33 and TSLP (158.7 nM, 79.4 nM, 39.7 nM) (R&D systems) were added to plot the association and dissociation curve according to the manufacturer's specification. Biosensors immobilized with irrelevant antibody (SM03, anti-human CD22 chimeric IgG1 antibody, SinoMab BioScience Limited, 20 μg/mL) were used as control reference.

Human PBMCs [3] = experiment: CCL8 and IFNγ release from human PBMC incubated with IL-12 and IL-33; type: cell-based; parameters: key to Intensity of specific cytokine inhibition, IFNγ / Intensity of specific cytokine inhibition, CCL-8: −: no binding; +: weak; ++: moderate; +++: strong binding; N/A refers to no binding affinity; conditions: 5 μg/ml
Experimental: (§3) Human PBMCs (4×10^5 per group, Ixcells) were incubated with IL-2 (10 unit/mL, PeproTech) and various alarmin/alarmin combinations to mimic the pro-inflammatory cytokines release during allergic diseases. For IL-5 and IL-13 releases, PBMCs were incubated with IL-2 and three alarmins (all 10 ng/ml) for three days. For CCL17 release, PBMC was incubated with TSLP (10 ng/ml) for 1 day. For CCL8 and IFNγ releases, PBMCs were incubated with IL-12 (10 ng/ml, Sino Biological) and IL-33 (10 ng/ml) for 1 day. Cells were pretreated with SM17 (5 μg/ml) or IgG4 isotype control (5 μg/ml) for an hour before the addition of cytokines.
(§4) Supernatants were collected and the cytokine concentration were measured by ELISA kits (R&D systems). These established assays were used to test the potency of and SM17 and bsBps. […] Results were expressed in absolute amount in pg/ml.
(§5) SM17, three different SM17-anti-IL33 bsBps and three different SM17-anti-TSLP bsBps (all at 5 μg/ml) were added to human PBMC cultures under conditions that shall induce the release of IFNγ, CCL8, CCL17 and IL-5 as described in Example 11 above. The levels of different cytokines and chemotactic factors in supernatant obtained in induced PBMC were evaluated using standard ELISA methods.

[4] = test system: ILC2 population in human PBMC; experiment: ILC2 cell population in human PBMC culture (flow cytometry); type: cell-based; parameters: key: −: no inhibition; +: weak; ++: moderate; +++: strong inhibition; conditions: IL-2 (10 unit/mL) and three alarmins (10 ng/ml), 5 days
From the text: (§6) While alarmins are known to work in concert to enhance ILC2 and Th2 cell functions such as increase in cell population, steroids such as Dexamethasone (Dex) can negate these effects, resulting in the mitigation of type 2 immune responses [Jia, Yi et al. American Journal Of Respiratory Cell And Molecular Biology, vol. 55, 5 (2016): 675-683]. ILC2 and Th2 cell population can be determined by flow cytometry (BD FACSVerse) following standard procedures known to those skilled in the art.

[5] = test system: Th2 cell population in human PBMC; experiment: Th2 cell population in human PBMC culture (flow cytometry); type: cell-based; parameters: key: −: no binding; +: weak; ++: moderate; +++: strong binding; N/A refers to no binding affinity; conditions: IL-2 (10 unit/mL) and three alarmins (10 ng/ml), 5 days
From the text: as §6

TSLP [6] = biological target: T3, TSLP (Homo sapiens, UniProt Q969D9); experiment: ELISA, antigen binding specificity of bsBp (TSLP); parameters: key: −: no binding; +: weak; ++: moderate; +++: strong binding; N/A refers to no binding affinity; conditions: 33.5 nM; antigen coated at 2 μg/mL
T3 construct: purchased R&D systems
Experimental: as §1

TSLP [7] = biological target: T3, TSLP; experiment: Bio-Layer Interferometry (Octet), binding kinetics of bsBp to human TSLP
Experimental: as §2

Human PBMCs [8] = experiment: CCL17 release from human PBMC incubated with TSLP; type: cell-based; parameters: key to Intensity of specific cytokine inhibition, CCL-17: −: no binding; +: weak; ++: moderate; +++: strong binding; N/A refers to no binding affinity; conditions: 5 μg/ml
Experimental: as §3, §4, §5

[9] = test system: Th2 cell population in human PBMC; experiment: Th2 cell population in human PBMC culture (flow cytometry); type: cell-based; parameters: key: −: no inhibition; +: weak; ++: moderate; +++: strong inhibition; conditions: IL-2 (10 unit/mL) and three alarmins (10 ng/ml), 5 days
From the text: as §6

Normal human DCs = experiment: Dendritic cell potency assay, TSLP-induced CCL17 production; type: cell-based; parameters: key: −: no inhibition; +: weak; ++: moderate; +++: strong inhibition; conditions: 5 μg/mL; TSLP 10 ng/mL, 5 days
From the text: TSLP from inflamed epithelium promotes maturation of dendritic cells (DCs) to prime Th2 responses via CCL17, which induces chemotaxis of CD4+ T cells to mediate inflammation (Kitajima and Ziegler. 2013. “Cutting Edge: Identification Of The Thymic Stromal Lymphopoietin-Responsive Dendritic Cell Subset Critical For Initiation Of Type 2 Contact Hypersensitivity”. J Immunol 191: 4903-4907; Bleck et al. 2015. “Co-Expression Of Type 2 Immune Targets In Sputum-Derived Epithelial And Dendritic Cells From Asthmatic Subjects”. J Allergy Clin Immunol 136: 619-627.e5). Normal human DCs were obtained from Lonza (Bend, OR). The DCs were cultured in LGM-3 medium (Lonza). TSLP (10 ng/mL) is added into the DC cultures for 5 days in the presence of 5 μg/mL of SM17, IgG4 isotype control (Sino Biological), SM17-TSLPR bsBp (SM17 fused with TSLP receptor extracellular domain) or SM17-anti-TSLP bsBp 2 #. The supernatants are harvested and the levels of CCL17 measured by ELISA following the manufacturer's specification (R&D systems).

[10] = bsBp or SM17 immobilized at 20 μg/mL

Intensity of specific antigen binding, IL-17RB coated on ELISA strips (IL-17RB) | Intensity of specific antigen binding, IL-33 coated on ELISA strips (IL-33 [1]) | Kdis (IL-33 [2]) | Ka (IL-33 [2]; [10]) | Intensity of specific antigen binding, TSLP coated on ELISA strips (TSLP [6]) | Kd (TSLP [7]) | Kdis (TSLP [7]) | Ka (TSLP [7]; [10]) | Molecule | CCL8 release, suppression effect as compared to SM17 (in words) (Human PBMCs [3]) | Intensity of specific cytokine inhibition, CCL-8 (Human PBMCs [3]; human PBMC) | Intensity of specific cytokine inhibition, IFNγ (Human PBMCs [3]; human PBMC) | Cell proliferation inhibition, ILC2 [4] | Cell proliferation inhibition, Th2 [5] | CCL17 release, suppression effect as compared to SM17 (in words) (Human PBMCs [8]) | Intensity of specific cytokine inhibition, CCL-17 (Human PBMCs [8]; human PBMC) | Cell proliferation inhibition, Th2 [9] | Potency, inhibition of CCL17 release on dendritic cells (Normal human DCs)
+++ | +++ | 0.000283 s⁻¹ | 9810 M⁻¹ s⁻¹ |  |  |  |  | SM17-anti IL-33 1# bsBp: bispecific binding protein, SM17 IgG fused to anti-IL-33 scFv; HC SEQ ID NO: 63, LC SEQ ID NO: 33 (antibody) heavy: MDLLHKNMKHLWFFLLLVAAPRWVLSQVQLVQSGAEVKKPGASVKVSCKASGYTFISYWMNWVRQAPGQGLEWMGRIDPYDSEIQYNQKFKDRVTMTRDTSISTAYMELSRLRSDDTAVYYCARSGGFDWFAYWGQGTLVTVSSASTKGPSVFPLAPCSRSTSESTAALGCLVKDYFPEPVTVSWNSGALTSGVHTFPAVLQSSGLYSLSSVVTVPSSSLGTKTYTCNVDHKPSNTKVDKRV[sequence of human IgG4 Fc with S228P (EU numbers) not given]GGGSGGGGSGGGGSQVQLMQSGAEVKKPGASVKVSCKASGYTFTSYWMHWVRQAPGQGLEWMGTIYPRNSNTDYNQKFKARVTMTRDTSTSTVYMELSSLRSEDTAVYYCARPLYYYLTSPPTLFWGQGTLVTVSSGGGGSGGGGSGGGGSGGGGSDIQLTQSPSFLSASVGDRVTITCKASQDVGTAVAWYQQKPGKAPKLLIYWASTRHTGVPSRFSGSGSGTEFTLTISSLQPEDFATYYCQQAKTYPFTFGSGTKLEIK light: DIQMTQSPSSLSASVGDRVTITCRASENINSNLAWYQQKPGKAPKLLLYDVTNLADGVPSRFSGSGSGTDYTLTISSLQPEDFATYYCQHFWGPPYTFGGGTKVEIKRTVAAPSVFIFPPSDEQLKSGTASVVCLLNNFYPREAKVQWKVDNALQSGNSQESVTEQDSKDSTYSLSSTLTLSKADYEKHKVYACEVTHQGLSSPVTKSFNRGEC | stronger suppression effect | + | ++ | +++ | + |  |  |  | 
+++ |  |  |  | +++ | 0.0658 nM | 3.17e-05 s⁻¹ | 481000 M⁻¹ s⁻¹ | SM17-anti TSLP 3# bsBp: bispecific binding protein, SM17 IgG fused to anti-TSLP scFv; HC SEQ ID NO: 62, LC SEQ ID NO: 33 (antibody) heavy: MDLLHKNMKHLWFFLLLVAAPRWVLSQVQLVQSGAEVKKPGASVKVSCKASGYTFISYWMNWVRQAPGQGLEWMGRIDPYDSEIQYNQKFKDRVTMTRDTSISTAYMELSRLRSDDTAVYYCARSGGFDWFAYWGQGTLVTVSSASTKGPSVFPLAPCSRSTSESTAALGCLVKDYFPEPVTVSWNSGALTSGVHTFPAVLQSSGLYSLSSVVTVPSSSLGTKTYTCNVDHKPSNTKVDKRV[sequence of human IgG4 Fc with S228P (EU numbers) not given]GGGSGGGGSGGGGSQVQLVESGGGLVQPGGSLRLSCAASGFTFSSYYMSWVRQAPGKGLEWVSGIFFDGETYYAGSVKGRFTISRDNSKNTLYLQMNSLRAEDTAVYYCARQQYFDHIDIWGQGTLVTVSSGGGGSGGGGSGGGGSGGGGSDIELTQPPSVSVAPGQTARISCGGDSLGGKYVYWYQQKPGQAPVLVIYGDSKRPSGIPERFSGSNSGNTATLTISGTQAEDEADYYCQSYDLQSLNIVFGGGTKLTVLGQ light: DIQMTQSPSSLSASVGDRVTITCRASENINSNLAWYQQKPGKAPKLLLYDVTNLADGVPSRFSGSGSGTDYTLTISSLQPEDFATYYCQHFWGPPYTFGGGTKVEIKRTVAAPSVFIFPPSDEQLKSGTASVVCLLNNFYPREAKVQWKVDNALQSGNSQESVTEQDSKDSTYSLSSTLTLSKADYEKHKVYACEVTHQGLSSPVTKSFNRGEC |  |  |  |  |  | stronger suppression effect | + | +++ | −
